{"source": "paper PMC9911399", "about": "“Two distinct binding modes provide the RNA-binding protein RbFox with extraordinary sequence specificity”", "binders": {"B1": {"name": "CGAUGCC (DNA:RNA)", "RNA": "GGGAGACCGGAAUUCAGAUUGUCCCGAUGCCUUAAAUCCCGUCGUAGCCACCA", "DNA 1": "CAATCTGAATTCCGGTCTCCC", "DNA 2": "TGGTGGCTACGACGGGATT"}, "B2": {"name": "CCUUGCU (DNA:RNA)", "RNA": "B1 RNA with G26C, A27U, C31U", "DNA 1": "CAATCTGAATTCCGGTCTCCC", "DNA 2": "TGGTGGCTACGACGGGATT"}, "B3": {"name": "GCAUGUC (DNA:RNA)", "RNA": "B1 RNA with C25G, G26C, C30U", "DNA 1": "CAATCTGAATTCCGGTCTCCC", "DNA 2": "TGGTGGCTACGACGGGATT"}, "B4": {"name": "UUCAUUA (DNA:RNA)", "RNA": "GGGAGACCGGAAUUCAGAUUGUCCUUCAUUAUUAAAUCCCGUCGUAGCCACCA", "DNA 1": "CAATCTGAATTCCGGTCTCCC", "DNA 2": "TGGTGGCTACGACGGGATT"}, "B5": {"name": "UUCCUUG (DNA:RNA)", "RNA": "B4 RNA with A28C, A31G", "DNA 1": "CAATCTGAATTCCGGTCTCCC", "DNA 2": "TGGTGGCTACGACGGGATT"}, "B6": {"name": "UAACCGU (DNA:RNA)", "RNA": "B1 RNA with C25U, G26A, U28C, G29C, C30G, C31U", "DNA 1": "CAATCTGAATTCCGGTCTCCC", "DNA 2": "TGGTGGCTACGACGGGATT"}, "B7": {"name": "CGGACGC (DNA:RNA)", "RNA": "B1 RNA with A27G, U28A, G29C, C30G", "DNA 1": "CAATCTGAATTCCGGTCTCCC", "DNA 2": "TGGTGGCTACGACGGGATT"}, "B8": {"name": "AUCGCCG (DNA:RNA)", "RNA": "B4 RNA with U25A, A28G, U29C, U30C, A31G", "DNA 1": "CAATCTGAATTCCGGTCTCCC", "DNA 2": "TGGTGGCTACGACGGGATT"}, "B9": {"name": "UCGGCAU (DNA:RNA)", "RNA": "B4 RNA with U26C, C27G, A28G, U29C, U30A, A31U", "DNA 1": "CAATCTGAATTCCGGTCTCCC", "DNA 2": "TGGTGGCTACGACGGGATT"}, "B10": {"name": "ACUUUGC (DNA:RNA)", "RNA": "B1 RNA with C25A, G26C, A27U, G29U, C30G", "DNA 1": "CAATCTGAATTCCGGTCTCCC", "DNA 2": "TGGTGGCTACGACGGGATT"}, "B11": {"name": "UUAGCAC (DNA:RNA)", "RNA": "B1 RNA with C25U, G26U, U28G, G29C, C30A", "DNA 1": "CAATCTGAATTCCGGTCTCCC", "DNA 2": "TGGTGGCTACGACGGGATT"}, "B12": {"name": "CUUAUAG (DNA:RNA)", "RNA": "B4 RNA with U25C, C27U, U30A, A31G", "DNA 1": "CAATCTGAATTCCGGTCTCCC", "DNA 2": "TGGTGGCTACGACGGGATT"}, "B13": {"name": "GCCGUCC (DNA:RNA)", "RNA": "B1 RNA with C25G, G26C, A27C, U28G, G29U", "DNA 1": "CAATCTGAATTCCGGTCTCCC", "DNA 2": "TGGTGGCTACGACGGGATT"}, "B14": {"name": "CGGCCAU (DNA:RNA)", "RNA": "B1 RNA with A27G, U28C, G29C, C30A, C31U", "DNA 1": "CAATCTGAATTCCGGTCTCCC", "DNA 2": "TGGTGGCTACGACGGGATT"}, "B15": {"name": "UAACGCU (DNA:RNA)", "RNA": "B1 RNA with C25U, G26A, U28C, C31U", "DNA 1": "CAATCTGAATTCCGGTCTCCC", "DNA 2": "TGGTGGCTACGACGGGATT"}, "B16": {"name": "AGGUUCA (DNA:RNA)", "RNA": "B1 RNA with C25A, A27G, G29U, C31A", "DNA 1": "CAATCTGAATTCCGGTCTCCC", "DNA 2": "TGGTGGCTACGACGGGATT"}, "B17": {"name": "UUUAGCU (DNA:RNA)", "RNA": "B4 RNA with C27U, U29G, U30C, A31U", "DNA 1": "CAATCTGAATTCCGGTCTCCC", "DNA 2": "TGGTGGCTACGACGGGATT"}, "B18": {"name": "UAGUAAU (DNA:RNA)", "RNA": "B1 RNA with C25U, G26A, A27G, G29A, C30A, C31U", "DNA 1": "CAATCTGAATTCCGGTCTCCC", "DNA 2": "TGGTGGCTACGACGGGATT"}, "B19": {"name": "GCCGCUA (DNA:RNA)", "RNA": "B4 RNA with U25G, U26C, A28G, U29C", "DNA 1": "CAATCTGAATTCCGGTCTCCC", "DNA 2": "TGGTGGCTACGACGGGATT"}, "B20": {"name": "UCCUUCG (DNA:RNA)", "RNA": "B4 RNA with U26C, A28U, U30C, A31G", "DNA 1": "CAATCTGAATTCCGGTCTCCC", "DNA 2": "TGGTGGCTACGACGGGATT"}, "B21": {"name": "CCGGCCC (DNA:RNA)", "RNA": "B1 RNA with G26C, A27G, U28G, G29C", "DNA 1": "CAATCTGAATTCCGGTCTCCC", "DNA 2": "TGGTGGCTACGACGGGATT"}, "B22": {"name": "GUAAAUA (DNA:RNA)", "RNA": "B4 RNA with U25G, C27A, U29A", "DNA 1": "CAATCTGAATTCCGGTCTCCC", "DNA 2": "TGGTGGCTACGACGGGATT"}, "B23": {"name": "ACUUCGA (DNA:RNA)", "RNA": "B1 RNA with C25A, G26C, A27U, G29C, C30G, C31A", "DNA 1": "CAATCTGAATTCCGGTCTCCC", "DNA 2": "TGGTGGCTACGACGGGATT"}, "B24": {"name": "UACCACG (DNA:RNA)", "RNA": "B4 RNA with U26A, A28C, U29A, U30C, A31G", "DNA 1": "CAATCTGAATTCCGGTCTCCC", "DNA 2": "TGGTGGCTACGACGGGATT"}, "B25": {"name": "GGUACAC (DNA:RNA)", "RNA": "B1 RNA with C25G, A27U, U28A, G29C, C30A", "DNA 1": "CAATCTGAATTCCGGTCTCCC", "DNA 2": "TGGTGGCTACGACGGGATT"}, "B26": {"name": "CGCCGUU (DNA:RNA)", "RNA": "B1 RNA with A27C, U28C, C30U, C31U", "DNA 1": "CAATCTGAATTCCGGTCTCCC", "DNA 2": "TGGTGGCTACGACGGGATT"}, "B27": {"name": "GGUUGCA (DNA:RNA)", "RNA": "B1 RNA with C25G, A27U, C31A", "DNA 1": "CAATCTGAATTCCGGTCTCCC", "DNA 2": "TGGTGGCTACGACGGGATT"}, "B28": {"name": "ACCGAUG (DNA:RNA)", "RNA": "B4 RNA with U25A, U26C, A28G, U29A, A31G", "DNA 1": "CAATCTGAATTCCGGTCTCCC", "DNA 2": "TGGTGGCTACGACGGGATT"}, "B29": {"name": "AGUAAGA (DNA:RNA)", "RNA": "B4 RNA with U25A, U26G, C27U, U29A, U30G", "DNA 1": "CAATCTGAATTCCGGTCTCCC", "DNA 2": "TGGTGGCTACGACGGGATT"}, "B30": {"name": "UUGAUUU (DNA:RNA)", "RNA": "B4 RNA with C27G, A31U", "DNA 1": "CAATCTGAATTCCGGTCTCCC", "DNA 2": "TGGTGGCTACGACGGGATT"}, "B31": {"name": "UUUCAUC (DNA:RNA)", "RNA": "B4 RNA with C27U, A28C, U29A, A31C", "DNA 1": "CAATCTGAATTCCGGTCTCCC", "DNA 2": "TGGTGGCTACGACGGGATT"}}, "note": "Where a chain is given by its changes, count along the chain named. The list shows a part of the results."}
{"target": "T1, RBFOX1 RRM (Homo sapiens, UniProt Q9NWB1 109-208)", "T1 sequence": "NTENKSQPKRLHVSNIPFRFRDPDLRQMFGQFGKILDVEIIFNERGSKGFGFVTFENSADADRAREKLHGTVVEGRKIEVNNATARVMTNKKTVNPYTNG", "assay": "EMSA; HiTS-Eq, 1 nM pool, 10 min; buffer printed only for the single-RNA assays: 10 mM Tris pH 7.5, 150 mM NaCl, 3.4 mM EDTA, 0.001% NP-40, 30 C", "details": "tags: His6 N-terminal (pET28a); label: 5' 32P", "in_short": "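Relative association constants, normalised to the cognate motif, were derived by comparing read counts of each RNA species with those of the control reaction. The RNA sequenced was the free fraction, separated by 8% native PAGE after a 10 min equilibration in 50 µL of 1 nM 5′-radiolabelled RNA (7 randomized nucleotides) with increasing concentrations of purified wild-type or mutant RbFox RRM.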"}
{"binder": "B1", "binding signal": "0.012 KA relative to UGCAUGU"}
{"binder": "B2", "binding signal": "0.0153 KA relative to UGCAUGU"}
{"binder": "B3", "binding signal": "0.689 KA relative to UGCAUGU"}
{"binder": "B4", "binding signal": "0.000726 KA relative to UGCAUGU"}
{"binder": "B5", "binding signal": "0.00951 KA relative to UGCAUGU"}
{"binder": "B6", "binding signal": "0.00391 KA relative to UGCAUGU"}
{"binder": "B7", "binding signal": "0.0184 KA relative to UGCAUGU"}
{"binder": "B8", "binding signal": "0.00734 KA relative to UGCAUGU"}
{"binder": "B9", "binding signal": "0.0191 KA relative to UGCAUGU"}
{"binder": "B10", "binding signal": "0.0114 KA relative to UGCAUGU"}
{"binder": "B11", "binding signal": "0.011 KA relative to UGCAUGU"}
{"binder": "B12", "binding signal": "0.00503 KA relative to UGCAUGU"}
{"binder": "B13", "binding signal": "0.0117 KA relative to UGCAUGU"}
{"binder": "B14", "binding signal": "0.00516 KA relative to UGCAUGU"}
{"binder": "B15", "binding signal": "0.00788 KA relative to UGCAUGU"}
{"binder": "B16", "binding signal": "0.00904 KA relative to UGCAUGU"}
{"binder": "B17", "binding signal": "0.0121 KA relative to UGCAUGU"}
{"binder": "B18", "binding signal": "0.00829 KA relative to UGCAUGU"}
{"binder": "B19", "binding signal": "0.0149 KA relative to UGCAUGU"}
{"binder": "B20", "binding signal": "0.0178 KA relative to UGCAUGU"}
{"binder": "B21", "binding signal": "0.0179 KA relative to UGCAUGU"}
{"binder": "B22", "binding signal": "0.000978 KA relative to UGCAUGU"}
{"binder": "B23", "binding signal": "0.0122 KA relative to UGCAUGU"}
{"binder": "B24", "binding signal": "0.00532 KA relative to UGCAUGU"}
{"binder": "B25", "binding signal": "0.0068 KA relative to UGCAUGU"}
{"binder": "B26", "binding signal": "0.00939 KA relative to UGCAUGU"}
{"binder": "B27", "binding signal": "0.0167 KA relative to UGCAUGU"}
{"binder": "B28", "binding signal": "0.00979 KA relative to UGCAUGU"}
{"binder": "B29", "binding signal": "0.0136 KA relative to UGCAUGU"}
{"binder": "B30", "binding signal": "0.0174 KA relative to UGCAUGU"}
{"binder": "B31", "binding signal": "0.00526 KA relative to UGCAUGU"}
